# Test results taken from the supplement of paper PMC3334620.
# The full ranking holds about 33,000 sequences; the median of “E-score (-0.5 to 0.5)” is about -0.017, and the highest 2% start at about 0.3. The list shows a part of the results.
# Molecular target: T1, Sut1 (UniProt P53032)
# T1 sequence: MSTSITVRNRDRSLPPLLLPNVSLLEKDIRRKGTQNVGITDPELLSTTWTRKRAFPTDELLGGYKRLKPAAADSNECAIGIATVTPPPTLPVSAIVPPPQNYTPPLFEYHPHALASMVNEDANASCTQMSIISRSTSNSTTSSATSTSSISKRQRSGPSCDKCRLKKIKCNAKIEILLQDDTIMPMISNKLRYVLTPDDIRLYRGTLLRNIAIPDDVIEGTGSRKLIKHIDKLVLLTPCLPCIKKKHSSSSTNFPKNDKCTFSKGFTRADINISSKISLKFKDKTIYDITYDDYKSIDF
# Assay: PBM E-score (8-mer binding enrichment) (E-score (-0.5 to 0.5)); higher = stronger / more preferred TF binding; most listed sequences are background and not binding sites
# Settings: protein concentration: 200 nM; construct: GST-full length
# Method: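 Universal 'all 10-mer' protein binding microarrays (Agilent AMADID 015681) probed with GST-tagged S. cerevisiae TFs (full-length or DBD) made by in vitro transcription/translation (PURExpress), about 100-200 nM. Bound TF was detected with fluorescent anti-GST. Each ungapped 8-mer (which stands for itself and its reverse complement) is scored by the PBM enrichment score (E-score), a modified Wilcoxon-Mann-Whitney statistic from -0.5 to +0.5, computed with the Universal PBM Analysis Suite. Scale: above 0.35 generally sequence-specific binding.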
row,Sequence,PBM E-score
1,CCATAGAA,0.0964
2,TGCGTTAA,-0.00864
3,CAAAGGGA,-0.213
4,AGCACGTC,-0.202
5,AGTACCAA,0.164
6,CCGGGCCC,0.281
7,ACGGCGGA,0.0877
8,CTTGACTC,-0.189
9,ATGAGGCC,-0.148
10,ACTTACGG,0.22
11,AAATGGCC,-0.0988
12,ACAGACGG,-0.0962
13,GCTGTGGA,-0.148
14,AGCCGATA,-0.0788
15,GGTCTGAA,0.108
16,TGATCTAA,0.111
17,GTAGAAAA,0.153
18,TTGGTAAA,0.167
19,GAATCGCC,-0.17
20,CCCGTGAA,-0.00725
21,AGGCTTCC,-0.0189
22,AGGAGGCA,-0.238
23,CGGATGTA,0.0559
24,CGCAAAAA,0.0966
25,CAAGAATC,0.0454

row,Sequence,PBM E-score
1,TGCTGACA,0.0537
2,TATAATCA,0.203
3,CAGGACAC,-0.248
4,ATCAACGA,0.0449
5,AAATATAT,0.365
6,AACAACCG,0.18
7,ATTCGTGA,0.0284
8,GCACGAAA,0.105
9,GCGCTGTA,-0.161
10,AACACCCA,-0.0569
11,ACATTGCG,-0.125
12,ATCATATC,0.153
13,GACAATGA,-0.0173
14,GCAGCCGA,-0.067
15,GAGTGCCA,-0.183
16,ATAGAGAT,0.0602
17,GCCAAGTA,-0.191
18,CGCTACTA,0.269
19,GGGGATAA,-0.115
20,AACAGTCG,0.0218
21,AAAGCAAC,0.0602
22,TCTAGCCA,-0.0636
23,ACTCCGGG,0.491
24,CCCTTCGC,-0.245
25,GGTCTTCA,-0.0448

row,Sequence,PBM E-score
1,CAAGCCGA,0.0166
2,AAATGTAT,0.304
3,AAGCACAG,0.0105
4,CAGATGTA,-0.151
5,AACATTAT,0.263
6,ACCCCACT,-0.0877
7,CATATAAC,0.141
8,CGGGTTCA,0.0274
9,ACAGTATG,0.00147
10,CACTTCCA,-0.142
11,AGCGCCTC,-0.0302
12,AGTCCACA,-0.0475
13,ACTCTGAA,0.0683
14,AATACCGA,0.158
15,CTAATCGA,0.0022
16,CGTGACTA,0.0165
17,CAATGCAG,-0.113
18,CTTACAGA,-0.104
19,AGCGCAGC,-0.149
20,AGATAAGA,0.101
21,ATAGAGAA,0.179
22,CCCGATGA,-0.022
23,TATGGCGA,-0.304
24,ACAGGCAC,-0.0536
25,CAGTCAAA,0.0987

row,Sequence,PBM E-score
1,CGCATAGA,-0.0782
2,CACTTGAA,0.0903
3,TCTTAACA,0.0137
4,AAACGCTT,0.0228
5,AGTTAACC,0.119
6,AGGAGCAT,-0.108
7,AATACATT,0.245
8,CGAGACGC,0.0426
9,AAGCGTGT,-0.26
10,AGTTGTTA,0.124
11,ATCCGCCG,0.0713
12,AGCCAGTG,-0.265
13,TCGGGTCA,0.084
14,CGCTATAA,0.0282
15,AGTACTAT,0.0894
16,CCAAATGC,0.00488
17,ACTATGCC,-0.0101
18,ATTACTCA,0.162
19,AACACTCT,0.113
20,CCCTGCGG,-0.0369
21,AAAAGTGG,0.129
22,ACAATGTC,0.0704
23,GGGCCCCA,-0.22
24,CATAGGTC,-0.0441
25,AGAAGCCC,0.167

row,Sequence,PBM E-score
1,CGCAGACG,0.0141
2,AGTCCTCA,0.0293
3,ATCCTGCA,-0.118
4,CAAGTACG,-0.155
5,ATTGAATG,0.236
6,GACCGATC,-0.111
7,GTGTTGAA,0.0558
8,AAGGTCCA,-0.135
9,CCGCGCAG,0.118
10,CCGTATCG,-0.11
11,GGGCCACA,-0.161
12,CCGTCGTC,-0.227
13,ATTCGCGC,0.0499
14,CGCTTAAC,0.0539
15,CAGACGAG,-0.263
16,AGTGACAC,-0.0313
17,AATCTACA,0.122
18,CCCTACTC,-0.123
19,AGCTTGAC,-0.0781
20,CCCCCTTA,-0.263
21,GAATCACA,0.0387
22,AACCTATC,0.132
23,AAAGCTCT,-0.177
24,AGCGGAGG,-0.201
25,CTTGGCTC,-0.095

row,Sequence,PBM E-score
1,AGATACCG,0.0712
2,ACGTAGGC,-0.171
3,GGCGTTAC,-0.213
4,ACCTTAGG,-0.192
5,CCGTCACA,-0.279
6,TACTTTCA,0.276
7,ACGAAGGG,-0.206
8,CTTACATA,0.198
9,CAATCGTC,0.0186
10,GTAGCTCA,-0.0732
11,TAACGACA,0.144
12,GATTCGGC,0.0544
13,ATCAAAGA,0.0209
14,CCCTAGAG,-0.344
15,GCCTATCC,-0.109
16,AGCATGTC,-0.0445
17,ACGTTCAA,0.0492
18,GGATAACA,0.143
19,ATATTAGG,0.163
20,AGTACCCC,-0.077
21,AGGATGGA,-0.195
22,ATCGACAA,0.115
23,ATTGCAAT,0.0774
24,CTTCGAAC,0.0649
25,GACTCACC,-0.0917

row,Sequence,PBM E-score
1,GCCACTCA,-0.126
2,TATAGGAA,0.146
3,CAGTTGTC,-0.144
4,GTATCAGA,0.017
5,GGACTGCA,0.0549
6,CTTGGGTA,-0.0404
7,ATCGGCGG,0.00281
8,GACTAGAA,0.198
9,ACATCAGC,-0.0232
10,CGGACCCC,0.112
11,AAACTAAT,0.292
12,ATCTTCGG,0.23
13,GTTACAAC,0.106
14,ACGTGCCT,-0.173
15,ATTTGGGA,0.0433
16,ATCCCATC,-0.16
17,ATGTCAAT,0.134
18,GTCCCCAC,-0.143
19,GAGTGGTA,-0.0154
20,AGCCTGCG,-0.222
21,AATCGAAC,-0.0301
22,ACCTCCAA,-0.127
